Test results as given in PubChem BioAssay AID1508624 (National Center for Advancing Translational Sciences (NCATS), 2021).
Out of some 48,000 compounds screened, about 120 (0.25%) were called active. Inconclusive results (about 4%) are left out. Calls follow the shape of the dose curve; as a rule, active = well fitted activation curve with a large enough effect; inconclusive = small, poorly fitted or top-dose-only effect, or another doubt; inactive = no such curve, though single readings can be large or run the other way. Some of the results follow.

assay: Primary qHTS for Identification of Small Molecule Activators of Huntingtin-Antisense Promoter Activity; details: HEK293 HTT-AS promoter firefly luciferase reporter, 24 h; series mostly up to 57.5 µM; activity change, positive = activation: at the top concentration; also: nearly all actives have a fitted effect of over 55% in size
In short: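 HEK293 cells carrying firefly luciferase reporters were seeded at 2,500 per well in Opti-MEM and cultured for 24 h. They were then treated with compounds at up to 57.5 uM final for 24 h at 37 degrees C before Dual-Glo luminescence readout.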

| SMILES | activity change, positive = activation |
| --- | --- |
| C[C@H]1C[C@H]2[C@@H]3CCC4=CC(=O)C=C[C@]4(C)[C@H]3C(=O)C[C@]2(C)[C@@]1(O)C(=O)CO | inactive: 29.3% |
| COc1ccc2oc(-c3ccc(C)c(NC(=O)c4ccc(N5CCCCC5)c([N+](=O)[O-])c4)c3)nc2c1 | inactive: -3.67% |
| CC(C)(C)OC(=O)N1CCC(c2c(C(=O)NCCN3CCOCC3)cnn2-c2ccccc2)CC1 | inactive: -35.5% |
| COc1ccccc1NC(=O)C1=C(C)Nc2ncnn2C1c1ccc[nH]1 (stereo unspecified) | inactive: -14.2% |
| CCN(CC)C(=O)Cn1c(SCC(=O)Nc2ccc(C)c(C)c2)nc2ccccc21 | inactive: -16.1% |
| COc1ccc(CNC(=O)CN2CCSc3ccccc32)c(OC)c1 | inactive: -8.44% |
| CCN(c1ccccc1)S(=O)(=O)c1cc(C(=O)Nc2ccc(Br)cc2)ccc1F | inactive: -42.5% |
| CCOC(=O)c1c(Nc2ccccc2)nnc(-c2ccccc2)c1-c1ccccc1 | inactive: -21.2% |
| O=C(Cn1c(=O)oc2ccccc21)NCc1ccc(Cl)cc1 | inactive: -3.89% |
| CCCCNC(=O)c1ccc(-c2nc(CS(=O)(=O)c3ccc(C)cc3)c(C)o2)cc1 | inactive: -15.6% |
| Cc1ccc(N2CC(c3nnc(Cc4ccc(F)cc4Cl)o3)CC2=O)cc1 (stereo unspecified) | inactive: -5.95% |
| CC1=C(c2ccc(Cl)cc2)S(=O)(=O)N=C1N1CCN(c2cccc(C)c2)C(C)C1 (stereo unspecified) | inactive: -22.6% |
| CNC(=O)c1ccc(NC(=O)c2nsc3ccccc23)cc1 | inactive: -59.6% |
| CCOC(=O)c1ccc(NC(=O)Cn2nnc(-c3ccc(C(F)(F)F)cc3)n2)cc1 | inactive: -7.79% |
| COc1ccc2c(c1)c(N1CCCC1=O)c(C(=O)Nc1ccc(Cl)cc1C)n2C | inactive: -11.6% |
| CCN1Cc2cccc(C(=O)Nc3ccc(F)cc3)c2C1=O | inactive: -17.9% |
| CCOC(=O)c1ccc(OCC2c3cc(OC)c(OC)cc3CCN2C(=O)Cc2ccc(OC)c(OC)c2)cc1 (stereo unspecified) | inactive: -17.1% |
| COC(=O)c1c(NC(=O)c2ccc(S(=O)(=O)N3CCCCC3)cc2)sc2c1CCN(C)C2 | inactive: -10.8% |
| C[C@@H]1C[C@H]2[C@@H]3CCC4=CC(=O)C=C[C@]4(C)[C@@]3(F)[C@@H](O)C[C@]2(C)[C@@]1(O)C(=O)COC(=O)c1ccncc1 | inactive: -14.2% |

| SMILES | activity change, positive = activation |
| --- | --- |
| COc1ccc(CCNC(=O)CCCn2c(=O)c3ccccc3n(CC(=O)Nc3c(C)cc(C)cc3C)c2=O)cc1OC | inactive: -13.4% |
| CCOC(=O)c1c(-c2ccc(C)cc2)csc1NC(=O)c1ccc(C(C)(C)C)cc1 | inactive: -15.1% |
| CCc1ccc(NC(=O)CCS(=O)(=O)c2ccc3c(c2)oc(=O)n3C)cc1 | inactive: -15.3% [at 11.5 µM, percent change from vehicle, -100% = no light] |
| COC(=O)c1ccc(OC)c(Cn2c(=O)n(-c3cccc(Cl)c3)c(=O)c3c2c2cc(C)ccc2n3C)c1 | inactive: -19.6% |
| Cc1ccc(-n2c(SCc3nc(-c4ccccc4C)no3)nnc2-c2ccncc2)cc1C | inactive: -20.6% |
| CC1=C(C(N)=O)C(c2ccc(C(C)C)cc2)n2nc(SCc3ccccc3F)nc2N1 (stereo unspecified) | inactive: -13.2% |
| Cc1cc(O)c(C)c(C)c1O | inactive: -3.85% |
| CCn1cc2nc(SCc3cccc(C(F)(F)F)c3)n(CCc3ccccc3)c(=O)c2n1 | inactive: 1.05% |
| CCOc1ccc(NC(=O)Cn2cnc3nc4c(cc3c2=O)CCCC4)cc1 | inactive: 2.79% |
| COc1ccc(-c2cc(C)no2)cc1S(=O)(=O)Nc1cccc(C(F)(F)F)c1 | inactive: -37.3% |
| Cc1c(CCNC(=O)c2ccc(C(F)(F)F)cc2)sc2nc(-c3ccc(F)cc3)nn12 | inactive: -3.51% |
| COc1ccc(CCNC(=O)Cn2c(C)c3cnn(-c4ccccc4)c(=O)c3c2C)cc1OC | inactive: -12.8% |
| COc1ccc(-c2[nH]c(-c3ccc(F)cc3)nc2SCC(=O)Nc2ccc(OC)c(OC)c2)cc1 | inactive: -17.9% |
| Fc1ccc(-n2ncc3c(Nc4ccc(Oc5ccc(Cl)cc5)cc4)ncnc32)cc1 | inactive: 26.8% |
| CCOC(=O)[C@H](CCc1ccccc1)N[C@@H](C)C(=O)N1[C@@H](C(=O)O)C[C@H]2CCC[C@@H]21 | inactive: -17.9% |
| COC(=O)c1ccccc1NC(=O)CN1C(=O)COc2ccccc21 | inactive: -5.74% |
| Cc1ncc(CO)c2c1Oc1nc(-c3ccccc3F)nc(SCC(=O)N3CCCCC3)c1C2 | inactive: -11.2% |
| COc1ccc(NC(=O)CSc2nc3c(c(=O)[nH]2)CN(Cc2ccccc2)CC3)cc1Cl | inactive: 0% |
| CCc1ccc(NC(=O)Cn2c(=O)n(Cc3ccccc3)c(=O)c3oc4ccccc4c32)cc1 | inactive: -4.55% |

| SMILES | activity change, positive = activation |
| --- | --- |
| COc1cccc2cc(-c3nc(Cl)c4c5c(sc4n3)CC(C)CC5)c(=O)oc12 (stereo unspecified) | inactive: -15.6% |
| Cc1ccc(S(=O)(=O)c2cn(C)c3cc(N4CCCC4)c(F)cc3c2=O)c(C)c1 | inactive: -20.2% |
| CCOc1cc(C(=O)Nc2c(NC)c3ccccc3oc2=O)cc(OCC)c1OCC | inactive: 9.04% |
| CCc1ccc(NC(=O)c2cnn(-c3c(C)cccc3C)c2C2CCNCC2)cc1 | inactive: -5.86% |
| Cc1ccc(C)c(CN2C(=O)c3ccccc3Sc3ccc(C(=O)NC4CCCC4)cc32)c1 | inactive: -26.5% |
| COc1ccc(NC(=O)c2c(C)oc3ccc(O)c(CN4CCCC(C)C4)c23)cc1Cl (stereo unspecified) | inactive: -21.8% |
| Cc1ccc(-n2ncc(C(=O)N3CCc4ccccc4C3)c2C2CCN(C(=O)OC(C)(C)C)CC2)cc1C | inactive: -3.44% |
| Cc1ccc(N2CCN(C(=O)CCc3c(C)nc4ncnn4c3C)CC2)c(C)c1 | inactive: -30.9% |
| CCS(=O)(=O)c1ncc(Cl)c(C(=O)N(Cc2ccccc2)Cc2ccco2)n1 | inactive: -93.5% |
| COc1ccccc1-c1noc(-c2ccc(NCCc3ccccc3)c([N+](=O)[O-])c2)n1 | inactive: 8.6% |
| CCn1cc(C(=O)NCCc2ccc(OC)c(OC)c2)c(=O)c2cc(S(=O)(=O)N3CCc4ccccc4C3)ccc21 | inactive: -16% |
| COc1cccc(CNC(=O)CSc2ncc(S(=O)(=O)c3ccc(C)c(Cl)c3)c(=O)[nH]2)c1 | inactive: 3.19% |
| COc1ccc(-c2nc(CN3CCC(C(=O)NCCN(CC(C)C)CC(C)C)CC3)c(C)o2)cc1OC | inactive: -18.8% |
| CCCn1c2ccccc2c2cnn(CC(=O)N(CCCOC(C)C)Cc3ccco3)c(=O)c21 | inactive: -48% |
| COc1cc(Nc2ncnc3onc(-c4ccc(Cl)cc4)c23)cc(OC)c1 | inactive: -33.6% |
| Cc1ccc(-n2c(=O)c3c(C)c(C)sc3n(CC(=O)c3ccc(Cl)cc3)c2=O)cc1C | inactive: -20% |
| O=C(Cn1c(=O)n(Cc2ccc(F)cc2)c(=O)c2sc3ccccc3c21)NCc1ccccc1Cl | inactive: -1.15% |
| COc1ccc(N2CCN(C(CNS(=O)(=O)c3c(C)cc(C)cc3C)c3ccco3)CC2)cc1 (stereo unspecified) | inactive: -34.3% |
